The other results are listed elsewhere or left out. At the low end of the ranking the order means little.

The target of this experiment is T1, GST-Rok (full length) (UniProt O34857).
T1 sequence: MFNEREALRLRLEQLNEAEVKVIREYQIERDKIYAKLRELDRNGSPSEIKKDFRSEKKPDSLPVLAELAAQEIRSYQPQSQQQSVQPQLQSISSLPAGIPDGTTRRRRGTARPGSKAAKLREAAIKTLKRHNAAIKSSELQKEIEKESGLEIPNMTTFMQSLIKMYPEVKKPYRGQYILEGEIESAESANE
In words: protein binding microarray.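 Note: rank score from −0.5 (least bound) to 0.5 (best bound).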 The conditions noted are these: Rok is a gene silencer of Bacillus subtilis; high values mean tight binding; most listed sequences are background and not binding sites; double strand, one strand shown.
With ATTCTCCG, the binding signal stood at 0.212 E-score.

For CAGCGCTA, the binding signal is -0.0901 E-score. ACTTATAA gave a binding signal of 0.28 E-score. In the case of ATTAGCTA it was 0.286 E-score; in that of AAGCACGT, 0.0893 E-score. Turning to CGAGCGAA, the binding signal is -0.105 E-score. In the case of CAATCGAC it was -0.0869 E-score; in that of GACACACA, -0.0217 E-score. In turn, CCAGCCAC had a binding signal of -0.234 E-score. For CATCTAGA the value was 0.00809 E-score. For GAAGGAAC the value was -0.0978 E-score. In the case of ATCGATGG, the binding signal came to 0.0568 E-score.

ATATCACC registered a binding signal of 0.222 E-score. In the case of ATTCGCAC it was -0.0552 E-score. In the case of CCGATTTC it was -0.187 E-score; in that of TCACTTAA, 0.015 E-score.

Turning to ACGAGCCC, the binding signal was -0.259 E-score.

Sequence TCTCAGAA had a binding signal of 0.127 E-score. ATGTGGCC registered a binding signal of -0.141 E-score.

As to ACACTACC, the binding signal was determined as 0.135 E-score. In the case of GGGAACTA it was 0.0241 E-score; in that of ATGTATAA, 0.385 E-score.

With CCTACGTA, the binding signal was -0.155 E-score.

With ACGCATTG, the binding signal is -0.0318 E-score. GATCATAC: the binding signal was 0.197 E-score. In the case of ACATCCAT it was 0.255 E-score. In the case of ATAGATCA it was 0.16 E-score; in that of ATGTTCAA, 0.0892 E-score. In the case of ATTAGGGC it was -0.117 E-score. Sequence AGATCTAT showed a binding signal of 0.312 E-score. For CAGTACGG the value was -0.115 E-score; for AGTAGCTA, 0.386 E-score; for CCGTTGTA, 0.0748 E-score. For AGAGCCCG the value was -0.189 E-score.

CGAAGCAG came in with a binding signal of -0.266 E-score. In the case of GGATTATA it was 0.0423 E-score; in that of ATAATGTC, 0.175 E-score.

Turning to GATCGGAC, the binding signal is -0.12 E-score. In the case of ACCCTCTC, the binding signal is -0.352 E-score.

CAATGCCG registered a binding signal of -0.0742 E-score. Regarding CACTGCTG, the binding signal is -0.0421 E-score.

In turn, CAGAGAGG had a binding signal of -0.192 E-score. In the case of AAACACGG it was -0.0353 E-score; in that of ACAAGTCT, -0.123 E-score. Take ATAAAGAG: the binding signal amounted to 0.0318 E-score. For GATTATCA the value was 0.183 E-score.

Turning to AGTCGCAC, the binding signal was -0.0838 E-score.

AGGTAAGG displayed a binding signal of -0.137 E-score.

ATTCTAAA: the binding signal amounted to 0.206 E-score. The sequence CCAGCTGG yielded a binding signal of -0.0435 E-score. With AGGCAAGC, the binding signal was -0.186 E-score. For CCCGCGAA the value was -0.0606 E-score. Turning to GACGGACA, the binding signal was -0.193 E-score. Sequence ACGGTGCG gave a binding signal of -0.221 E-score. Sequence CAACTGCC showed a binding signal of -0.222 E-score. Regarding GTACGCCA, the binding signal was -0.0467 E-score. For AACCGAAC the value was 0.13 E-score; for AGCAACAC, 0.17 E-score; for ACACGTCA, 0.0265 E-score. For CCCGACCG the value was -0.311 E-score; for ATACATGC, 0.224 E-score. For ATTTGTGC the value was -0.02 E-score; for ATGCTCCA, 0.0336 E-score; for AGGGATCC, -0.341 E-score. Take CGACCTGC: the binding signal was -0.203 E-score. Take AAACAGAC: the binding signal was 0.0378 E-score.

Take CCGAGCCC: the binding signal is -0.402 E-score.

In turn, AGTGTGAT showed a binding signal of -0.0908 E-score. AGGCACAT displayed a binding signal of -0.0309 E-score. In the case of ATACAAGG it was -0.0167 E-score; in that of CTACATGA, 0.347 E-score; in that of AAGGCAGT, 0.108 E-score.

As for GCCGCTAC, the binding signal is 0.121 E-score.

With ATTGATCC, the binding signal turned out to be 0.00268 E-score. CATCTTTA had a binding signal of -0.129 E-score. In the case of CTCTAGTC it was 0.146 E-score; in that of GATAGCGC, 0.224 E-score; in that of GAAAACAC, 0.0542 E-score.

Take TATCCACA: the binding signal amounted to 0.0289 E-score. For ATTATTTA the value was 0.406 E-score; for GAACTGGC, -0.104 E-score; for ACGTCGGA, 1.16e-05 E-score. In the case of GTAACTAA it was 0.304 E-score; in that of ATGTTAGC, 0.11 E-score; in that of ATCTCCTG, -0.147 E-score. In the case of CGGGCCAC it was -0.203 E-score. As for TTATCGAA, the binding signal came to 0.145 E-score. In the case of GACTGCGA it was -0.158 E-score. Turning to ACAGGATA, the binding signal is 0.151 E-score.

The sequence GGAACTGA returned a binding signal of -0.0362 E-score. Sequence CACAGATA showed a binding signal of 0.217 E-score.

On to CACGGCCA, for which the binding signal is -0.0528 E-score. For the sequence TAGCCTAA, the binding signal was -0.0202 E-score. AAAGCTAA displayed a binding signal of 0.0948 E-score. For AGAAAAAA the value was 0.0774 E-score; for GTGTACCA, -0.0444 E-score. The sequence ACGAGGGG had a binding signal of -0.276 E-score. In the case of CGCGGACG it was -0.152 E-score; in that of GCTTGGCC, -0.395 E-score; in that of CAAGTGAG, -0.171 E-score.

ATTGACAA displayed a binding signal of 0.0319 E-score. In turn, ACCTACGA showed a binding signal of 0.202 E-score. Sequence CTCCTAAG yielded a binding signal of -0.05 E-score. For AGCTCGAC the value was -0.122 E-score; for AAGTGTAC, 0.126 E-score; for ATGGGGGG, -0.466 E-score. As for CAATGCTA, the binding signal is 0.175 E-score.

Regarding CACCGAAG, the binding signal is -0.257 E-score. In the case of GAATCGCA it was -0.126 E-score. For GTAATGGA the value was 0.266 E-score; for ACTCATTA, -0.0443 E-score. In the case of ATAAAATC it was 0.295 E-score; in that of AATAATGA, 0.0976 E-score; in that of AGACTTAT, 0.0949 E-score. As to GGCTCAAA, the binding signal was -0.0922 E-score. For CGAAAAAA the value was -0.0641 E-score; for ATTGTCTA, 0.136 E-score; for AGACGCAC, -0.237 E-score. The sequence ACATTGGT had a binding signal of 0.186 E-score. In the case of TAGGCCGA it was -0.156 E-score; in that of GAGAGTGC, -0.163 E-score; in that of CGACTCCC, -0.318 E-score. Sequence CGCACATA displayed a binding signal of 0.136 E-score. For ATTGATGA the value was 0.00641 E-score. For AAGAACTT the value was -0.0219 E-score; for CTGGCGGC, -0.218 E-score. In the case of CTGATGGC it was -0.154 E-score. In turn, CTTAAGTC showed a binding signal of -0.158 E-score.

The sequence AGCGTCTG had a binding signal of 0.0355 E-score. On to ATGGCCCG, for which the binding signal is -0.197 E-score.

In turn, CCCTTGAA registered a binding signal of -0.232 E-score. Take AATTGGGA: the binding signal is -0.0694 E-score. Sequence ATCGGCCG came in with a binding signal of -0.0783 E-score.

With GTCACAGA, the binding signal is -0.117 E-score. In turn, AGTTTTAT had a binding signal of 0.29 E-score. In turn, TAAGTCGA had a binding signal of 0.0375 E-score. Consider CCTCGACC, for which the binding signal is -0.301 E-score. For the sequence CTACACAC, the binding signal was -0.00896 E-score.

With GAGCAGCA, the binding signal is -0.191 E-score.

As for CGTTCACA, the binding signal is -0.0773 E-score. As to GGGAACAA, the binding signal was -0.0801 E-score.

Sequence CGATCTGA registered a binding signal of 0.0905 E-score. In the case of ACAAAAGA it was -0.0301 E-score; in that of AGTCGAAC, -0.0148 E-score. In the case of ATGGGAGA it was -0.0104 E-score.

In turn, CTGTAGGC registered a binding signal of -0.0493 E-score. ATGCCCCA registered a binding signal of -0.34 E-score.

Sequence AGACTGTA showed a binding signal of 0.117 E-score. For GAGGGAAC the value was -0.167 E-score; for TATAAGAA, 0.184 E-score; for AGCATCAG, -0.0321 E-score. In the case of ACTATCAT it was 0.29 E-score; in that of CCAGATAA, 0.0351 E-score; in that of AGCTTAGC, 0.0674 E-score. In turn, AGCATCAA gave a binding signal of -0.0955 E-score. The sequence TACTCGCA came in with a binding signal of -0.0973 E-score. For the sequence CAGCTCGC, the binding signal was -0.191 E-score. In the case of AAACACGA it was 0.168 E-score.

GGTCTTAC returned a binding signal of -0.12 E-score. For TCAAAGAA the value was 0.0682 E-score.

The sequence CATCATGG displayed a binding signal of -0.0446 E-score. For ACAGAGTG the value was -0.0192 E-score; for CGGCCGTA, -0.0236 E-score; for GCTTTACC, 0.0377 E-score. For AGCCATGC the value was -0.176 E-score. For TGCCAGCA the value was 0.156 E-score.

AGCAGAAG yielded a binding signal of -0.0224 E-score. For GACACACC the value was -0.201 E-score; for GACGCCTC, -0.276 E-score; for ATAAATTA, 0.347 E-score. GGGCCCGA had a binding signal of -0.25 E-score. In the case of ATTCCCGA it was -0.0158 E-score.

Source of the values: paper PMC6212790.
